Experimental findings from article PMC2140264 are described below.

Amino acid sequences for entries named in this document (tags omitted).
UniProt Q12373: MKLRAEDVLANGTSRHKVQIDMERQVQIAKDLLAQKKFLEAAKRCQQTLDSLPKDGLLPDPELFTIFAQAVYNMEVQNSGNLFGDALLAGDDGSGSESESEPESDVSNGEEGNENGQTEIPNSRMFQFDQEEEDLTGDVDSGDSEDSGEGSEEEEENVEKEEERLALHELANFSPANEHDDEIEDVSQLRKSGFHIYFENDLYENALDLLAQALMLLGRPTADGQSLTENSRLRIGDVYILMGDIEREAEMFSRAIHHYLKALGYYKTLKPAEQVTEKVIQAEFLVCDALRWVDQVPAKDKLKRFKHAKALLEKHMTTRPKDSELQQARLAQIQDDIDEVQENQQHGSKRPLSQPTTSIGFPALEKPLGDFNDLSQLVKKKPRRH
UniProt Q12341: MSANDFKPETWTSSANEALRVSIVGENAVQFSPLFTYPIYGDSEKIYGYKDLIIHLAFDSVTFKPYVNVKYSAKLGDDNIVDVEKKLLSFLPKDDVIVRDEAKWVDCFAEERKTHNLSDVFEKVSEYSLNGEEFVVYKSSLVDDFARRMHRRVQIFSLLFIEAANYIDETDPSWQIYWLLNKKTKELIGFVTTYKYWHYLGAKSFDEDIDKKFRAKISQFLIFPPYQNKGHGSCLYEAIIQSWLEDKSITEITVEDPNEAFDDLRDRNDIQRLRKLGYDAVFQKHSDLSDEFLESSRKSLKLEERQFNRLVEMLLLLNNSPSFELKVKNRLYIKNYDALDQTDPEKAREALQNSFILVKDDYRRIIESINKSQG

The target in one test is T1, Orc3p (S. cerevisiae) (UniProt P54790).
T1 sequence: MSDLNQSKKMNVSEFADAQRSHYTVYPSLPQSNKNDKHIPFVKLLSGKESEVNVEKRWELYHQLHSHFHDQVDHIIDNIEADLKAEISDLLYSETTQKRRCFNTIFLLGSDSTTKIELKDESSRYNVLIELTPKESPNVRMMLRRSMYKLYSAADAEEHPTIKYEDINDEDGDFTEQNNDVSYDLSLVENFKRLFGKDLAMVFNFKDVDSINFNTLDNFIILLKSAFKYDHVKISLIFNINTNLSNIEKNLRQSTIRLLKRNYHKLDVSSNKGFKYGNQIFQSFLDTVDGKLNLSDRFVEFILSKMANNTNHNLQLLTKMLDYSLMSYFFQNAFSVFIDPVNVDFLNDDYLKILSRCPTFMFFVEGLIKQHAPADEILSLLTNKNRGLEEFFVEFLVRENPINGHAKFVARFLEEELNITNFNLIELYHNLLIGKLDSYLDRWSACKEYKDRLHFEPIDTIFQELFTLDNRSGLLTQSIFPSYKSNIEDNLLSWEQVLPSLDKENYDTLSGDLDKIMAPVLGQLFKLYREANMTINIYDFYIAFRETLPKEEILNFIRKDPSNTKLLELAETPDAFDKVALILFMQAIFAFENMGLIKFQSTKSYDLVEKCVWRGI
The test is described as follows: co-IP; yeast whole cell extracts (50 mM HEPES pH 7.8, 200 mM KCl, 1 mM Na2EDTA, 5 mM EGTA-KOH, 10% glycerol, 1 mM DTT); monoclonal α-Orc3p antibody and protein G beads, α-GFP as control antibody; blot with α-myc 9E10; log-phase cells, cells arrested with α-factor, hydroxyurea or nocodazole or released from α-factor; also with benzonase on the beads.

Test [1] concerns the target TAP-tagged Hif1p (S. cerevisiae) (UniProt Q12373). The test is described as follows: tandem affinity purification with silver-stained gel and Western blot; TAP purifications from HIF1-TAP, HIF1-TAP hat1Δ, HAT1-TAP and HAT1-TAP hif1Δ strains; concentrated purification products blotted with α-Hat1p, α-Orc2p, α-Orc3p, α-Orc5p and α-acetyl H4 Lys12. (In general: A western blot detects proteins with antibodies after separation by electrophoresis.)

Test [2] addresses TAP-tagged Hat1p (S. cerevisiae) (UniProt Q12341). Described as above.

Results are given in words; binding and its absence hold for the method and conditions named. For some assays here: In cells and extracts the contact can be indirect. Some results given as binding are weak or reduced against the parent protein; the word gives no strength. For some assays here: Where a sequence is shown, tags or fusion partners need not be part of it.

Regarding Hif1–13myc (from UniProt Q12373 1-385), in the test with Orc3p (S. cerevisiae), the binding entry is on record as “no binding”.

B1: Orc3p (protein, UniProt P54790 1-616)
chain: MSDLNQSKKMNVSEFADAQRSHYTVYPSLPQSNKNDKHIPFVKLLSGKESEVNVEKRWELYHQLHSHFHDQVDHIIDNIEADLKAEISDLLYSETTQKRRCFNTIFLLGSDSTTKIELKDESSRYNVLIELTPKESPNVRMMLRRSMYKLYSAADAEEHPTIKYEDINDEDGDFTEQNNDVSYDLSLVENFKRLFGKDLAMVFNFKDVDSINFNTLDNFIILLKSAFKYDHVKISLIFNINTNLSNIEKNLRQSTIRLLKRNYHKLDVSSNKGFKYGNQIFQSFLDTVDGKLNLSDRFVEFILSKMANNTNHNLQLLTKMLDYSLMSYFFQNAFSVFIDPVNVDFLNDDYLKILSRCPTFMFFVEGLIKQHAPADEILSLLTNKNRGLEEFFVEFLVRENPINGHAKFVARFLEEELNITNFNLIELYHNLLIGKLDSYLDRWSACKEYKDRLHFEPIDTIFQELFTLDNRSGLLTQSIFPSYKSNIEDNLLSWEQVLPSLDKENYDTLSGDLDKIMAPVLGQLFKLYREANMTINIYDFYIAFRETLPKEEILNFIRKDPSNTKLLELAETPDAFDKVALILFMQAIFAFENMGLIKFQSTKSYDLVEKCVWRGI
For B1, in test [1], the binding entry is listed as “no binding”.

B2: Hat2–13myc (protein, UniProt P39984 1-401)
chain: MENQEKPLSVDEEYDLWKSNVPLMYDFVSETRLTWPSLTVQWLPTPVQELDGGFIKQELIIGTHTSGEEENYLKFAEINLPKEILSNEDPQEEAGEEYQSSLPAPRSNIRITAKYEHEEEITRARYMPQDPNIVATINGQGTVFLYSRSEGLQSTLKFHKDNGYALSFSTLVKGRLLSGSDDHTVALWEVGSGGDPTKPVRTWNDLHSDIINDNKWHNFNKDLFGTVSEDSLLKINDVRANNTTIDTVKCPQPFNTLAFSHHSSNLLAAAGMDSYVYLYDLRNMKEPLHHMSGHEDAVNNLEFSTHVDGVVVSSGSDNRLMMWDLKQIGAEQTPDDAEDGVPELIMVHAGHRSSVNDFDLNPQIPWLVASAEEENILQVWKCSHSLPIVGGPPKVNKDIIS
Take B2: the binding entry in the test with Orc3p (S. cerevisiae) was “binds”.

B3: Hat2p (protein, UniProt P39984 1-401)
chain: MENQEKPLSVDEEYDLWKSNVPLMYDFVSETRLTWPSLTVQWLPTPVQELDGGFIKQELIIGTHTSGEEENYLKFAEINLPKEILSNEDPQEEAGEEYQSSLPAPRSNIRITAKYEHEEEITRARYMPQDPNIVATINGQGTVFLYSRSEGLQSTLKFHKDNGYALSFSTLVKGRLLSGSDDHTVALWEVGSGGDPTKPVRTWNDLHSDIINDNKWHNFNKDLFGTVSEDSLLKINDVRANNTTIDTVKCPQPFNTLAFSHHSSNLLAAAGMDSYVYLYDLRNMKEPLHHMSGHEDAVNNLEFSTHVDGVVVSSGSDNRLMMWDLKQIGAEQTPDDAEDGVPELIMVHAGHRSSVNDFDLNPQIPWLVASAEEENILQVWKCSHSLPIVGGPPKVNKDIIS
With B3, the binding entry in test [2] and in test [1] was “binds” each time.

B4: Orc2p (protein, UniProt P32833 1-620)
chain: MLNGEDFVEHNDILSSPAKSRNVTPKRVDPHGERQLRRIHSSKKNLLERISLVGNERKNTSPDPALKPKTPSKAPRKRGRPRKIQEELTDRIKKDEKDTISSKKKRKLDKDTSGNVNEESKTSNNKQVMEKTGIKEKREREKIQVATTTYEDNVTPQTDDNFVSNSPEPPEPATPSKKSLTTNHDFTSPLKQIIMNNLKEYKDSTSPGKLTLSRNFTPTPVPKNKKLYQTSETKSASSFLDTFEGYFDQRKIVRTNAKSRHTMSMAPDVTREEFSLVSNFFNENFQKRPRQKLFEIQKKMFPQYWFELTQGFSLLFYGVGSKRNFLEEFAIDYLSPKIAYSQLAYENELQQNKPVNSIPCLILNGYNPSCNYRDVFKEITDLLVPAELTRSETKYWGNHVILQIQKMIDFYKNQPLDIKLILVVHNLDGPSIRKNTFQTMLSFLSVIRQIAIVASTDHIYAPLLWDNMKAQNYNFVFHDISNFEPSTVESTFQDVMKMGKSDTSSGAEGAKYVLQSLTVNSKKMYKLLIETQMQNMGNLSANTGPKRGTQRTGVELKLFNHLCAADFIASNEIALRSMLREFIEHKMANITKNNSGMEIIWVPYTYAELEKLLKTVLNTL
In the case of B4, in test [1], the binding result was “no binding”.

B5: myc-tagged Orc5p (protein, UniProt P50874 1-479)
chain: MNVTTPEVAFREYQTNCLASYISADPDITPSNLILQGYSGTGKTYTLKKYFNANPNLHAVWLEPVELVSWKPLLQAIARTVQYKLKTLYPNIPTTDYDPLQVEEPFLLVKTLHNIFVQYESLQEKTCLFLILDGFDSLQDLDAALFNKYIKLNELLPKDSKINIKFIYTMLETSFLQRYSTHCIPTVMFPRYNVDEVSTILVMSRCGELMEDSCLRKRIIEEQITDCTDDQFQNVAANFIHLIVQAFHSYTGNDIFALNDLIDFKWPKYVSRITKENIFEPLALYKSAIKLFLSTDDNLSENGQGESAITTNRDDLENSQTYDLSIISKYLLIASYICSYLEPRYDASIFSRKTRIIQGRAAYGRRKKKEVNPRYLQPSLFAIERLLAIFQAIFPIQGKAESGSLSALREESLMKANIEVFQNLSELHTLKLIATTMNKNIDYLSPKVRWKVNVPWEIIKEISESVHFNISDYFSDIHE
On to B5, for which the binding entry in the test with Orc3p (S. cerevisiae) is recorded as “binds”.

B6: Orc5p (protein, UniProt P50874 1-479)
chain: MNVTTPEVAFREYQTNCLASYISADPDITPSNLILQGYSGTGKTYTLKKYFNANPNLHAVWLEPVELVSWKPLLQAIARTVQYKLKTLYPNIPTTDYDPLQVEEPFLLVKTLHNIFVQYESLQEKTCLFLILDGFDSLQDLDAALFNKYIKLNELLPKDSKINIKFIYTMLETSFLQRYSTHCIPTVMFPRYNVDEVSTILVMSRCGELMEDSCLRKRIIEEQITDCTDDQFQNVAANFIHLIVQAFHSYTGNDIFALNDLIDFKWPKYVSRITKENIFEPLALYKSAIKLFLSTDDNLSENGQGESAITTNRDDLENSQTYDLSIISKYLLIASYICSYLEPRYDASIFSRKTRIIQGRAAYGRRKKKEVNPRYLQPSLFAIERLLAIFQAIFPIQGKAESGSLSALREESLMKANIEVFQNLSELHTLKLIATTMNKNIDYLSPKVRWKVNVPWEIIKEISESVHFNISDYFSDIHE
Turning to B6, in test [1], the binding result is reported as “no binding”.
